The list shows a part of the results. These are noisy estimates, calculated here from bound and input reads.

For this assay, the target named is T1, Pho4 (S. cerevisiae) (UniProt P07270).
T1 sequence: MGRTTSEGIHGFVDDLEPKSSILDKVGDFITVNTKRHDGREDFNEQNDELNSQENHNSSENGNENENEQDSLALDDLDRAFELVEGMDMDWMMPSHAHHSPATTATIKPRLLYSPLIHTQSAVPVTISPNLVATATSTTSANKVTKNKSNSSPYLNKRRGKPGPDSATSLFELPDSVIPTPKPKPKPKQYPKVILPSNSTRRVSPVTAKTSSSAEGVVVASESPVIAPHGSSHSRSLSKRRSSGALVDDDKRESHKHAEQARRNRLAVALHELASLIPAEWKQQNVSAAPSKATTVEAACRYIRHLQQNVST
Description: relative binding free energy (BET-seq); higher = weaker binding. Particulars: reference: library average.
For the sequence TATGTCACGTGGGCGG, the “relative binding free energy” value is -0.08 kcal/mol.

Turning to ATGGTCACGTGTTGTA, the “relative binding free energy” value is 0.12 kcal/mol. For GTTTTCACGTGGGTTG the value was 0.25 kcal/mol; for TCGGTCACGTGTCGTG, 0.18 kcal/mol. For AATTGCACGTGAGTGA the value was 0.24 kcal/mol; for AGTGGCACGTGAGCTG, 0.14 kcal/mol; for TTCTTCACGTGTAGGT, 0.18 kcal/mol. The figure for CTTAGCACGTGTTTGA is -0.16 kcal/mol. GTGTTCACGTGAGGAA: the “relative binding free energy” value came out at 0.46 kcal/mol.

TGGGACACGTGATTGC: the “relative binding free energy” value is 0.1 kcal/mol.

In the case of TTGTCCACGTGATAGT, the “relative binding free energy” value came to 0.05 kcal/mol. The figure for TGGTCCACGTGCGTTA is -0.12 kcal/mol; for TATTGCACGTGAATCG it is 0.23 kcal/mol.

Regarding TGGTGCACGTGGGATG, the “relative binding free energy” value is -0.1 kcal/mol. For TCTGACACGTGGTTGT the value was -0.05 kcal/mol. In the case of AGGCTCACGTGGGGTT, the “relative binding free energy” value came to 0.11 kcal/mol. With AGAGACACGTGATGGG, the “relative binding free energy” value stood at 0.09 kcal/mol.

For the sequence GTAGTCACGTGCGTAG, the “relative binding free energy” value came to 0.17 kcal/mol. For GGGGACACGTGAAATT, the “relative binding free energy” value turned out to be 0.62 kcal/mol. The figure for CGTACCACGTGTGGGT is -0.07 kcal/mol; for GGATGCACGTGGGGGC it is -0.06 kcal/mol; for GGGTGCACGTGTAATT it is 0.16 kcal/mol. The figure for GTGCGCACGTGTGAAT is 0.11 kcal/mol; for TAATCCACGTGTTGTT it is 0 kcal/mol; for GGTTTCACGTGCGTGC it is 0.26 kcal/mol. As for TTAGTCACGTGAGAAT, the “relative binding free energy” value worked out at 0.26 kcal/mol.

With AAGTCCACGTGAGGGT, the “relative binding free energy” value stood at 0.12 kcal/mol. The figure for CGGGACACGTGATTTT is 0.4 kcal/mol. For CAATTCACGTGGTGAT the value was 0.24 kcal/mol; for ATTAGCACGTGTGAGA, -0.01 kcal/mol.

Turning to AATACCACGTGGGTGT, the “relative binding free energy” value is -0.28 kcal/mol. The figure for GGTGCCACGTGTGGGT is 0 kcal/mol. For GTGTACACGTGGTGAG the value was 0.01 kcal/mol; for TGGCTCACGTGGTCTT, 0.12 kcal/mol. For GAGTACACGTGGTATG the value was 0.14 kcal/mol. As to GGTTTCACGTGCGACG, the “relative binding free energy” value was found to be 0.35 kcal/mol. The figure for AGAGTCACGTGCTTAT is 0.14 kcal/mol. For GGTGGCACGTGACGTC, the “relative binding free energy” value amounted to 0.07 kcal/mol. For GTGATCACGTGAGGCG the value was 0.23 kcal/mol; for ATGTTCACGTGTAGTC, 0.16 kcal/mol. The figure for TAATGCACGTGTGTCG is -0.07 kcal/mol; for ATAGTCACGTGGGTCA it is -0.06 kcal/mol; for TTTGGCACGTGCTCTG it is -0.1 kcal/mol.

For the sequence CTTCGCACGTGTAGGG, the “relative binding free energy” value came to 0.1 kcal/mol.

For ACGTTCACGTGTTGTT, the “relative binding free energy” value came out at 0.25 kcal/mol. For GGTTCCACGTGGATAG the value was 0.18 kcal/mol. The figure for CCGGGCACGTGGCGGT is -0.29 kcal/mol; for AAGGTCACGTGTTAGT it is 0.26 kcal/mol. Turning to GGTTTCACGTGGTATT, the “relative binding free energy” value amounted to 0.38 kcal/mol.

On to GCGGACACGTGGGTGT, for which the “relative binding free energy” value was -0.03 kcal/mol.

As for TGGAGCACGTGCTGTT, the “relative binding free energy” value is -0.14 kcal/mol. For GGGAGCACGTGCGGTG the value was -0.11 kcal/mol; for ATGTCCACGTGTTTGT, 0.07 kcal/mol; for GGGTTCACGTGTTTAC, 0.28 kcal/mol. Turning to CTTCTCACGTGGGTTT, the “relative binding free energy” value was determined as 0.1 kcal/mol. For CTTGGCACGTGCGGGG the value was -0.28 kcal/mol.

AGGAGCACGTGAGCGT: the “relative binding free energy” value is 0.14 kcal/mol.

Consider TTACTCACGTGGGGGA, for which the “relative binding free energy” value is -0.01 kcal/mol. Consider TCCGGCACGTGGGTTA, for which the “relative binding free energy” value is -0.1 kcal/mol. The figure for AGTATCACGTGGCGGG is 0.14 kcal/mol; for GTAGGCACGTGATTCA it is -0.01 kcal/mol.

Take AGAGGCACGTGTTTAA: the “relative binding free energy” value was -0.15 kcal/mol. For TGTAGCACGTGAGTCA the value was 0.2 kcal/mol; for TGCGACACGTGGTAGT, -0.06 kcal/mol; for CTAGGCACGTGGTCTG, -0.19 kcal/mol.

Turning to TATTACACGTGTGCAT, the “relative binding free energy” value was determined as 0.02 kcal/mol. The figure for CTTGACACGTGGTAAT is 0 kcal/mol. The figure for TTGGGCACGTGGTCGC is -0.1 kcal/mol; for TATTTCACGTGTTCTG it is 0.2 kcal/mol; for GTTAGCACGTGGGGGT it is 0.01 kcal/mol. For CTGTGCACGTGAGAGT the value was 0.15 kcal/mol; for TAGTGCACGTGTACTG, -0.01 kcal/mol; for ATGGCCACGTGGTGAT, -0.01 kcal/mol.

For the origin of these results see the BET-seq Pho4 binding data (Le et al. 2018).
